Measurements from article PMC7501296, “Rapid and direct control of target protein levels with VHL-recruiting dTAG molecules” (Nature Communications, 2020).
Several values for one entry are separate records, joined by “and”; a condition that tells them apart may be missing. Identical values can stand only once. This continues a long series; more values of the same kind are listed elsewhere.

Key:
[1] = tested on: PATU-8902 FKBP12^F36V-KRAS^G12V; KRAS^-/- clone; assay: Antiproliferation, PATU-8902 FKBP12F36V-KRASG12V; KRAS-/- clone, 3D-spheroid (CellTiter-Glo); format: cell-based; conditions: 120 h
Experimental: (§1) Cell viability was assayed in 2D-adherent or ultra-low adherent 3D-spheroids using CellTiter-Glo (Promega)[6],[15]. Luminescence was measured on an Envision 2104 plate reader (PerkinElmer) and Fluostar Omega Reader (BMG Labtech) and data was analyzed using GraphPad PRISM v8. Synergy assessments were performed using CellTiter-Glo (Promega) with the following modifications to the protocol described in the ref. [34]. In brief, EWS502 cells were plated at 1000 cells per well in 50 µL of appropriate media in 384-well white culture plates (Corning) allowed to adhere overnight, and 100 nL of compounds were added using a Janus Workstation pin tool (PerkinElmer) for 72 h. Cell viability was measured by addition of 10 µL of CellTiter-glo (Promega), followed by incubation for 15 minutes at room temperature. Luminescence was measured on an Envision 2104 plate reader (PerkinElmer) and data was analyzed using GraphPad PRISM v8.

[2] = tested on: PATU-8902 LACZ-FKBP12^F36V clone; assay: Antiproliferation, PATU-8902 LACZ-FKBP12F36V clone, 2D-monolayer (CellTiter-Glo); format: cell-based
Experimental: as §1

SMILES: CC[C@H](C(=O)N1CCCC[C@H]1C(=O)O[C@H](CCc1ccc(OC)c(OC)c1)c1ccccc1OCC(=O)NCCCCCCC(=O)N[C@H](C(=O)N1C[C@H](O)C[C@H]1C(=O)N[C@@H](C)c1ccc(-c2scnc2C)cc1)C(C)(C)C)c1cc(OC)c(OC)c(OC)c1 [dTAG^V-1]
- DMSO-normalized antiproliferation ([1]; log10[compound] (M) -8.19897, single replicates): 30.0314 and 28.6949 and 32.4036 and 30.2152
- DMSO-normalized antiproliferation ([1]; log10[compound] (M) -8.69897, single replicates): 52.8515 and 46.5534 and 59.2387 and 51.9382
- DMSO-normalized antiproliferation ([1]; log10[compound] (M) -9.19897, single replicates): 73.4831 and 72.2079 and 84.3419 and 73.5221
- DMSO-normalized antiproliferation ([1]; log10[compound] (M) -9.69897, single replicates): 99.984 and 76.802 and 106.171 and 79.0127
- DMSO-normalized antiproliferation ([1]; log10[compound] (M) -10.199, single replicates): 80.9506 and 84.0022 and 96.4313 and 99.1933
- DMSO-normalized antiproliferation ([2]; log10[compound] (M) -4.69897): 85.1577 and 72.2366 and 82.9443 and 78.0836
- DMSO-normalized antiproliferation ([2]; log10[compound] (M) -5.19897): 77.9567 and 74.0308 and 77.4261 and 81.3624
- DMSO-normalized antiproliferation ([2]; log10[compound] (M) -5.69897): 92.4692 and 73.6669 and 88.5961 and 75.9217
- DMSO-normalized antiproliferation ([2]; log10[compound] (M) -6.19897): 97.7261 and 86.0485 and 91.3233 and 76.0541
- DMSO-normalized antiproliferation ([2]; log10[compound] (M) -9.19897): 90.8848 and 75.3731 and 80.2124 and 77.2292
